Reference: PubChem BioAssay AID488969 (Vanderbilt High Throughput Screening Facility, 2010)
Over roughly 110,000 compounds, “z-score” has its median near -0.1; the highest 2% begin near 2. Some of the results follow. Activity calls are given as the source filed them.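 How the source made its calls: active means z-score in the third read window above 3 or below -3; inactive means the rest.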

target: Metabotropic glutamate receptor 8 (Rattus norvegicus) (UniProt P70579); assay: mGluR8 Gi/Go-coupled signaling modulation – cell-based, rat, thallium flux, HTS, primary screen (AID 488969); details: HEK293 rat mGluR8, GIRK (G protein-gated inwardly rectifying potassium channel) thallium flux, FluoZin2; at 10 µM; stronger effect = higher value; submaximal glutamate (EC20) added with thallium
UniProt P70579, sequence (P70579 whole entry, looked up): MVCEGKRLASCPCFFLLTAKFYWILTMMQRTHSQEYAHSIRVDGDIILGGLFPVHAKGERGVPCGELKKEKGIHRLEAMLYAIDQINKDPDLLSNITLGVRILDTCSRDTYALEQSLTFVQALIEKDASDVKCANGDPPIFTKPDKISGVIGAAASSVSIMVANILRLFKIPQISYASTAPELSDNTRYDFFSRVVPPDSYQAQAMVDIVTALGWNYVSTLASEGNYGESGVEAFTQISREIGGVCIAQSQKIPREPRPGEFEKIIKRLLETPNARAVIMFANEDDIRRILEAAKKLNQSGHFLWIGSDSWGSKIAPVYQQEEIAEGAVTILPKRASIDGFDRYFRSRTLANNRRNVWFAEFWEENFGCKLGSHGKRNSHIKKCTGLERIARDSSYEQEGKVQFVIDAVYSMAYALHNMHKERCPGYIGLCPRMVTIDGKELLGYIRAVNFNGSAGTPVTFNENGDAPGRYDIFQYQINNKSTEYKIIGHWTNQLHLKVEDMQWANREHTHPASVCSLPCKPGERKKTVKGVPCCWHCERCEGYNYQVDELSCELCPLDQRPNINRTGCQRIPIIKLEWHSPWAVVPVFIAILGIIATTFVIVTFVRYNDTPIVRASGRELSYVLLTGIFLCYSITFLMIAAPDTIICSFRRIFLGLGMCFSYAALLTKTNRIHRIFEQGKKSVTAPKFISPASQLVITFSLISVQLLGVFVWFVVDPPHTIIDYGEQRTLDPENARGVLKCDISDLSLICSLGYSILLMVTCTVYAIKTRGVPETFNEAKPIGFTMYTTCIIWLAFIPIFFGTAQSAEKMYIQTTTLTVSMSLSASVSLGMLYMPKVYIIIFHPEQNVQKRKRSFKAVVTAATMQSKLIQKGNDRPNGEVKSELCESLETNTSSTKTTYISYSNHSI

SMILES | z-score
O=C(O)CCC(=O)N1N=C(c2c(-c3ccccc3)c3cc(Cl)ccc3[nH]c2=O)CC1c1cccs1 (configuration not stated) | -0.38
CCc1c(C)nc(SCC(=O)N2CCc3ccccc32)[nH]c1=O | active: 4.54
CC1(C)CC(=O)c2c(O)cc(OCc3ccc([N+](=O)[O-])cc3)cc2O1 | -0.143
C=C(C)CSc1nnc2n(N)c(=O)c3ccccc3n12 | -0.341
S=C(NCc1ccncc1)Nc1cccc(Cl)c1 | -0.135
Cc1ccc(NC(=O)c2cccc(OCc3c(C)noc3C)c2)cc1S(=O)(=O)Nc1ccccc1Cl | -1.89
O=C(CC(c1ccccc1)c1ccccc1)NCC1CCCO1 (configuration not stated) | -0.78
O=C(CN1CCCCC1)Nc1cccc(Oc2ccccc2)c1 | 1.13
CC1(C)CC(=O)C2=C(C1)N(Cc1ccco1)C(=O)C2(NC(=O)C1CCCCC1)C(F)(F)F (configuration not stated) | 0.273
COc1ccc(C2=NN(C(=O)CSc3nnc(-c4ccccc4F)o3)C(c3ccco3)C2)cc1 (configuration not stated) | 0.428
COc1ccc(N(CC(=O)N2CCCC(C)C2)S(=O)(=O)c2c(C)nn(C)c2C)cc1 (configuration not stated) | -0.0582
CCOc1ccccc1C1C(C(=O)Nc2ccc(OC)cc2)=C(C)Nc2nc(CCCO)nn21 (configuration not stated) | 1.3
O=C(Nc1nccs1)c1ccc(COc2ccccc2Br)o1 | 0.0903
Fc1ccc(COc2ccc(Cl)cc2/C=N/Nc2nc(N3CCCC3)nc(N3CCCC3)n2)cc1 | -0.209
Cc1ccc(Nc2ncnc3sc(C)c(C)c23)cc1 | 0.163
O=C(NCc1ccco1)/C(=C\c1cccnc1)NC(=O)c1ccccc1F | -0.205
CC1CCCC(NS(=O)(=O)c2ccc3c(c2)OCCO3)C1C (configuration not stated) | -1.41
C=CCc1c(C)nc(C)nc1N/N=C/c1ccc([N+](=O)[O-])cc1 | -0.491
Cc1ccc(C)c(Cn2c(=O)n(CCCC(=O)NCc3ccco3)c(=O)c3sccc32)c1 | -0.162
Cc1c(NC(=O)CN2C(=O)c3cccc4cccc2c34)c(=O)n(-c2ccccc2)n1C | -0.144
Cc1cc2ncn(C(=O)N3CCCCCC3)c2cc1C | -0.0727
Cn1c(Cl)nc2c1c(=O)n(Cc1cccc(Br)c1)c(=O)n2C | -0.0966
Cc1nc2ccc(C(=O)N3CCN(c4ccccc4)CC3)cc2s1 | -0.389

SMILES | z-score
COc1ccccc1NS(=O)(=O)c1ccc(NC(=O)c2nc3nc(C)cc(C(F)F)n3n2)cc1 | -0.251
COc1cccc(-c2cc(C(=O)NCc3ccc(Cl)cc3)no2)c1 | 0.359
CCCc1nc2sc3c(c2c(=O)n1NC(=O)CCC(=O)O)CCCC3 | 0.696
O=C(NCCc1ccccc1)c1cc2ncc(Br)cn2n1 | -0.293
COc1ccc(Nc2nc(C)cc(=O)[nH]2)c(OC)c1 | 0.181
CCc1ccccc1NC(=S)N1CCC(C(=O)c2ccc(F)cc2)CC1 | 0.202
COc1ccc(C(=O)NC(=S)N(Cc2ccccc2)Cc2ccccc2)cc1 | active: 16.8
Cc1ccc(NC(=O)CCC(=O)OCC(=O)c2ccc(Oc3ccc([N+](=O)[O-])cc3)cc2)c(C)c1 | 0.000298
O=C(Nc1nc2ccc(SC(F)F)cc2s1)c1ccc2c(c1)S(=O)(=O)c1ccccc1C2=O | -0.0834
COc1ccc(-c2nnc3n2N=C(C)CS3)cc1OC | -0.0383
COc1cc2c3c(c1)/C(=C1/SC(NC(C)=O)=NC1=O)C(=O)N3C(C)(C)C=C2C | -0.174
O=C(C1CCN(C2CC(=O)N(c3ccc(Cl)cc3)C2=O)CC1)N1CCOCC1 (configuration not stated) | 0.478
COC(=O)c1cc(OC)c(OC)cc1NC(=O)c1cnccn1 | -0.208
CCCCCc1ccc(CC(=O)Nn2c(C)nc3ccccc3c2=O)cc1 | 0.84
CC1=C(C#N)C(=O)OC(C)(C)C1 | -0.482
COC(=O)CN1C(=S)N(c2ccccc2)C(=O)C1CC(=O)Nc1ccc(Cl)cc1 (configuration not stated) | -0.168
CCn1c(SCC(=O)Nc2cc(C)on2)nc2c1c(=O)n(C)c(=O)n2C | -0.0494
CC(C)Nc1nnc(SCC(=O)c2c(N)n(Cc3ccccc3)c(=O)n(C)c2=O)s1 | -0.427
O=C(Nc1sc2c(c1C(=O)O)CCC2)c1ccccc1 | -0.0696
O=C(c1ccco1)N(CCC(c1ccccc1)c1ccco1)Cc1ccco1 (configuration not stated) | -0.692
c1ccc(N2CCN(C3CCSC3)CC2)cc1 (configuration not stated) | -0.119
CCc1cc2c(=O)nc3n(c2s1)Cc1ccccc1/C3=C(/O)c1ccc(F)cc1 | 0.832
CC(NC(=O)Nc1ccccc1O)(C(F)(F)F)C(F)(F)F | 0.0646

SMILES | z-score
O=C(Cn1cncn1)N/N=C/c1c2ccccc2cc2ccccc12 | -0.0193
Cc1c(NC(=S)N/N=C/c2cccc(O)c2)c(=O)n(-c2ccccc2)n1C | -0.201
Cc1cccc(NC(=O)C2CC(=O)OC23CCCC3)c1 (configuration not stated) | -0.174
O=C(NC1CCCCC1)C(Cc1ccccc1)NS(=O)(=O)c1cccs1 (configuration not stated) | -0.336
COc1ccc(-c2csc(NC(=O)CCCc3cccs3)n2)cc1 | -0.0277
O=C(NCCc1ccccc1)C1CC(c2ccccc2O)=NO1 (configuration not stated) | -0.373
COc1ccc(NC(=O)c2ccc3c(c2)C(=O)N(Cc2cccnc2)C3=O)cc1 | 0.241
CC(=O)N1CCc2cc(Br)cc(S(=O)(=O)NCc3ccccn3)c21 | 0.145
COCCCNc1nc2c(c(=O)[nH]c(=O)n2C)n1CC(O)COc1ccccc1 (configuration not stated) | -0.217
CCOC(=O)c1sc2nc(SC)nc(-c3ccc(Cl)cc3)c2c1N | -0.108
Cc1cccc(N2CCN(C(=O)c3ccc4nc[nH]c4c3)CC2)c1C | -0.25
COc1ccc(NC(=O)c2c(Cl)n(C)c3ccccc23)cc1 | -0.242
O=c1[nH]c2cc3c(cc2cc1CN(CCc1ccccc1)Cc1nnnn1CC1CCCO1)OCO3 (configuration not stated) | -0.544
Cc1c(N=C2SCC(=O)N2/N=C/c2ccccc2Cl)c(=O)n(-c2ccccc2)n1C | 0.339
Cc1ccc(NS(=O)(=O)c2cc(C(=O)N3CCOCC3)ccc2C)cc1 | 0.142
CCN1CCN(c2c(Cl)cccc2NC(=O)c2ccc3c(c2)OCCO3)CC1 | -0.091
COc1cc(OC)cc(C(=O)NNC(=O)Cc2ccc(OC)c(S(=O)(=O)N3CCOCC3)c2)c1 | -0.00238
CCNC(=O)CN1c2cccc3cccc(c23)S1(=O)=O | 0.487
CC(C)(C)C1CCc2c(sc(NC(=O)C3CC=CCC3C(=O)O)c2C#N)C1 (configuration not stated) | -0.0721
CC(C)C(=O)N1CCC(CN=CC2=C(O)CC(C)(C)CC2=O)CC1 | -0.187
CCOC(=O)c1sc(Nc2ccccc2)nc1C | -0.0511
